Hit rate of the full screen: of about 390,000 compounds, about 930 (0.24%) were called active. Inconclusive means that the source gave no clear call. Such entries were picked first, then a sample of the others. Calls follow the shape of the dose curve; as a rule, active = well fitted activation curve with a large enough effect; inconclusive = small, poorly fitted or top-dose-only effect; inactive = no such curve, though single readings can be large or run the other way. A potency beside an inconclusive call is a rough fit, not a confirmed value.
Experiment: qHTS for Suppressors of FUS Proteinopathy: Primary screen using FUS-linked yeast assay; also: nearly all actives have a fitted effect of over 55% in size;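 as to growth rescue (activation): plate controls were DMSO vehicle for no effect and reference control for full effect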
Conditions: S. cerevisiae FUS-expressing, OD600, 24 h; Potency: growth rescue; growth rescue (activation): at 76.6 µM (top of the series)
Procedure, shortened: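 Toxicity suppression screen in FUS-yeast. Cells induced with 2% galactose, starting OD 0.005, treated 24hr at 30C with compounds at multiple final concentrations; growth by OD600.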
In the case of `C[C@@H]1CCCCO[C@H](CN(C)Cc2ccc(C(=O)O)cc2)[C@H](C)CN([C@@H](C)CO)C(=O)c2cc(NC(=O)Nc3ccc(C(F)(F)F)cc3)ccc2O1`, the Potency is reported as inconclusive: 25.1 µM [activator, single point]. For `CN1CCN(c2ccc(-c3cccc4nccn34)cn2)CC1`, the “growth rescue (activation)” value was inactive: -17.4%. In the case of `COc1ccccc1CCC(=O)Nc1ccc(S(=O)(=O)Nc2ncccn2)cc1`, the Potency is reported as inconclusive: 25.1 µM [activator, single point]. In the case of `O=C(Cn1ncc2c3ccccc3n(Cc3cccc(Cl)c3)c2c1=O)NC1CCCCCC1`, the “growth rescue (activation)” value is reported as inactive: 0.434%. For `Cc1cc(NC(=O)COC(=O)c2cc([N+](=O)[O-])ccc2N2CCOCC2)ccc1Br`, the Potency was inconclusive: 14.1 µM [activator, partial curve, poor fit]. With `COc1ccc(C2C=C(c3ccccc3)Nc3nc(NC(=O)/C=C/c4ccccc4)nn32)cc1` (stereo unspecified) the Potency was inconclusive: 28.2 µM [activator, single point]. With `Cc1cccc(N2CCN(C(=O)CCCCn3c(=O)[nH]c4ccsc4c3=O)CC2)c1C` the Potency was inconclusive: 31.6 µM [activator, partial curve, poor fit]. For `Cc1cc(Nc2cccc(Cl)c2)nc2ccc(NC(=O)Cc3cccc(C(F)(F)F)c3)cc12`, the Potency was inconclusive: 15.8 µM [activator, partial curve, poor fit]. For `CCCCOc1cccc(C(=O)N(Cc2sccc2C)C2CCS(=O)(=O)C2)c1` (stereo unspecified), the Potency was inconclusive: 12.6 µM [activator, partial curve, poor fit]. With `Cn1c(=O)n(C/C=C/c2ccccc2)c(=O)c2c1nc1n2CCCN1Cc1ccccc1` the Potency was inconclusive: 39.8 µM [activator, partial curve, poor fit]. With `CCc1nc2c(OCc3cc(Cl)cc(Cl)c3)cccn2c1N(C)C(=O)c1ccccc1F` the Potency was inconclusive: 28.2 µM [activator, partial curve, poor fit]. With `COc1ccc(S(=O)(=O)N2CCN(C(=O)c3ccc(COc4ccccc4)o3)CC2)cc1` the Potency was inconclusive: 22.4 µM [activator, partial curve]. With `CCN(CC)c1nc(N)c2c(N)n(-c3ccccc3C)c(=S)c(C#N)c2c1C#N` the Potency was active: 28.2 µM. In the case of `COc1ccc(Br)cc1C(=O)NC(=S)Nc1cc(-c2nc3ccccc3[nH]2)ccc1C`, the Potency is reported as inconclusive: 12.6 µM [activator, partial curve]. In the case of `Cc1cccc(NC(=O)c2ccc(S(=O)(=O)NCc3cccnc3)cc2)c1`, the “growth rescue (activation)” value is reported as inactive: 17.2%. In the case of `COc1cc(OC)c(C(=O)OC(C)C(=O)Nc2cccc(C(F)(F)F)c2)cc1OC` (stereo unspecified), the Potency is reported as inconclusive: 50.1 µM [activator, single point].
Potency is read from the fitted curve at half-maximal effect; tags tell the direction and shape of the fitted curve.
